Out of some 310,000 compounds screened, about 2,200 (0.71%) showed an effect of 50% or more. Effects have a minus sign here. The list shows a part of the results.
Each compound was assayed against human ether-à-go-go-related gene (hERG) potassium channel (human, UniProt Q12809) (assay: primary screen, population patch clamp on CHO cells stably expressing hERG).
Chain of human ether-à-go-go-related gene (hERG) potassium channel (Q12809 whole entry, looked up): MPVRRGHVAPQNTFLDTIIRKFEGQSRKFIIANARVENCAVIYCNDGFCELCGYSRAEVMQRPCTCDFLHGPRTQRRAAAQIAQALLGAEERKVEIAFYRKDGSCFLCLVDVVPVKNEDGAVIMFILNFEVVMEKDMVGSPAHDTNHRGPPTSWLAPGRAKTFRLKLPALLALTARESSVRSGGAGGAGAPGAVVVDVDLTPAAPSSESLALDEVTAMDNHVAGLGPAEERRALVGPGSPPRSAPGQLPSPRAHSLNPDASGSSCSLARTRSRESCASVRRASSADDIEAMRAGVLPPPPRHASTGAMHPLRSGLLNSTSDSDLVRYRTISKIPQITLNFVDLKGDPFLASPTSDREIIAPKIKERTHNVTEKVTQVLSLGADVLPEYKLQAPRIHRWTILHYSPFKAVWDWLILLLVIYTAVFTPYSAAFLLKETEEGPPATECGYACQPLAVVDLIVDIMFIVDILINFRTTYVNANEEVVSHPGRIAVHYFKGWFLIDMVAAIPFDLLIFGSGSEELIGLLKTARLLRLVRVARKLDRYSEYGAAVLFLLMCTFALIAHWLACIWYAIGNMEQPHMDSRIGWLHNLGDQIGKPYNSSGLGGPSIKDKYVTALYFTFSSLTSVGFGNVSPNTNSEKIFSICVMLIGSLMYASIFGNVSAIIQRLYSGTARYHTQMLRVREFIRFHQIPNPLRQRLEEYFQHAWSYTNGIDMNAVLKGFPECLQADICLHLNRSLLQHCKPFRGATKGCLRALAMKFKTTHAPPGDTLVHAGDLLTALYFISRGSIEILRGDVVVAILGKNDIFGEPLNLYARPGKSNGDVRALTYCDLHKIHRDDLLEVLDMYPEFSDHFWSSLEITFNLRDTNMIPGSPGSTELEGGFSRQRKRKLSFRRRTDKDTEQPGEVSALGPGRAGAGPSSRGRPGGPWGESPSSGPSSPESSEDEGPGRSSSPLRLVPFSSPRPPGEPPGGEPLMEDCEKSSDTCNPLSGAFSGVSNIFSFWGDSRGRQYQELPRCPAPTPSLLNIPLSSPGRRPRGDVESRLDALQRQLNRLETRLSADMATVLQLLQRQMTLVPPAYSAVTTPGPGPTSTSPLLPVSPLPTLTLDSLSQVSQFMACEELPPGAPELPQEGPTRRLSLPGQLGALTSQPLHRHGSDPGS

Structure (SMILES)	hERG current change (%, negative = inhibition) at 1uM [%]
COc1ccc(OCCSc2nnc(CCNC(=O)c3ccc(Cl)c(Cl)c3)n2C)cc1	-2.01
COc1cccc(CN2CCN(C(=O)Cc3ccccc3OC)CC2)c1	21.1
CC(=C/C(=O)[O-])/C=C/c1ccco1.[Na+]	12.9
CCc1cc(=O)oc2c(C)c(OCC(=O)NCCCN3CCCC3=O)ccc12	8.98
c1ccc2c(NC3CCCC3)nnc(NC3CCCC3)c2c1	-70.4
O=C(/C=C/c1ccccc1)Nc1ccc(S(=O)(=O)N2CCOCC2)cc1	13.5
O=C(Nc1c(Cl)cc(Cl)cc1C(=O)NCCN1CCOCC1)c1cccc([N+](=O)[O-])c1	3.41
OCCNC(=S)Nc1cc(Cl)cc(Cl)c1	13.9
O=C(/C=C/c1ccco1)Nc1cccnc1Cl	13.5
Cc1ccc(NC(=O)COc2ccccc2)c(NC(=O)c2ccco2)c1	-0.0071
COc1ccc(OC)c(NC=C2C(=O)OC(C)(C)OC2=O)c1	14.6
NC(=O)CC(NC(=O)c1ccccc1)c1ccc(NCC2CC2)c([N+](=O)[O-])c1 (centres unmarked)	-11.3
O=C(O)C(O)C(O)c1nc2ccccc2[nH]1 (centres unmarked)	7.71
CN1CCc2c(sc3c2c(=O)n(-c2ccccc2)c2nnc(SCc4ccc(Cl)cc4)n32)C1	7.2
COc1ccc(-c2nc(CS(=O)CC(=O)NCc3ccc4c(c3)OCO4)c(C)o2)cc1 (centres unmarked)	-0.166
COc1ccc2[nH]cc(C(=O)N3CCCCC3)c(=O)c2c1	14.9
CCSc1nnc(NC(=O)CSC2=NN3CCCC(=O)N=C3S2)s1	4.54
Cc1cc(C)c(NC(=O)CSc2nc(=O)n3cc(C)ccc3n2)c(C)c1	11.3
O=C(O)C1C2CCC(O2)C1C(=O)Nc1ccccc1Br (centres unmarked)	20
COc1ccc(NC(=O)CSc2nnc3ccc(-c4ccncc4)nn23)cc1	8.08
Cl.N[C@@H](CO)c1nnc([C@H](CCC(=O)O)NC(=O)C2CCNCC2)o1	15.3
Cc1[nH]c2ccccc2c1C(=O)NS(=O)(=O)Nc1ccc(F)cc1	13.9
O=[N+]([O-])c1ccc(Cl)c(/C=N/N2CCN(Cc3ccccc3Cl)CC2)c1	-0.496

Structure (SMILES)	hERG current change (%, negative = inhibition) at 1uM [%]
O=C(CSc1nnc(C23CC4CC(CC(C4)C2)C3)o1)Nc1ccc(N2CCOCC2)c(Cl)c1	14.6
c1ccc2cc(OCCOCCOc3ccc4ccccc4c3)ccc2c1	2.25
COc1ccc(OCC(O)CN2CCc3ccccc3C2)cc1.Cl (centres unmarked)	-2.53
CCN(CC(=O)Nc1ccc2c(c1)OCCO2)C(=O)CCOc1ccccc1	6.8
CCOc1ccc(CCNC(=O)CN2C(=O)c3cccnc3Oc3ccc(C)cc32)cc1OCC	3.44
Cc1ccc(OCc2ccc(C(=O)NN)o2)cc1C	10.9
Cc1ccc(C(=O)c2cnc3ccccc3c2-c2ccccc2)cc1	7.14
O=C(CCn1c(=O)sc2ccccc21)Nc1ccon1	4.85
NC(=O)C1CCN(Cc2nc3c(Br)cc(Br)cc3c(=O)[nH]2)CC1	4.73
COc1cccc(C(=O)NC(c2ccccc2)C2CCCC2)c1 (centres unmarked)	12.5
O=C(COc1ccc(Cl)cc1)Nc1ccc(C(=O)NCc2cccnc2)cc1	7.27
Cn1c(=O)c2c(nc(N/N=C/c3ccc(OC(=O)c4ccco4)cc3)n2Cc2ccc(F)cc2)n(C)c1=O	3.14
C=CCn1nc(-c2ccccc2)cc1C(=O)OCC	14.6
CC1CCc2sc(C(=O)N=Nc3c(O)[nH]c4ccccc34)cc2C1 (centres unmarked)	12.7
CCn1nnc2cc(C(=O)Nc3cc(S(C)(=O)=O)ccc3Cl)ccc21	12.1
CN(CC(=O)Nc1ccccc1Cl)C(=O)COC(=O)/C=C/c1cccs1	3.64
COc1ccc(Nc2nc(N)c3ccccc3n2)c(OC)c1.Cl	7.66
Cc1[nH]c2ccccc2c1-c1csc(NC(=O)CSCCO)n1	7.67
Cn1c(SCc2ccccc2F)nnc1-c1cnccn1	8.47
CCc1nnc(NC(=O)c2sc3nc4cc(C)ccc4cc3c2N)s1	28
C[C@H](C(=O)NCc1ccccc1)C(=O)c1ccccc1	8.46
COc1ccccc1OCc1nc(C#N)c(NCCCn2ccnc2)o1	18.3
CN1C[C@@H]2C(c3ccc(Cl)nc3)C3(c4ccc(C#N)cc4)CC2(C3)[C@H]1c1ccccc1 (some centres unmarked)	-7.57

Structure (SMILES)	hERG current change (%, negative = inhibition) at 1uM [%]
COc1ccc2[nH]c(=O)c(CN(C)C(=O)c3cccs3)cc2c1	-3.91
COc1ccc(-c2nnn(-c3ccc(Cl)cc3Cl)c2N)cc1	-0.193
O=C(Cc1cccs1)N/N=C\c1ccc(O)cc1	14.2
CC(=O)Nc1ccc(NC2=Nc3ccccc3N3C2=Nc2c(c(C)nn2-c2ccccc2)C3c2ccccc2)cc1 (centres unmarked)	9.02
c1ccc(CNc2nc(-c3cccs3)nc3ccccc23)nc1	7.04
CCOc1cc(CNCCO)cc(Br)c1OCc1ccccc1.Cl	9.9
Cc1cc(C)cc(NC2=NCC(=O)N2Cc2ccccc2)c1	6.97
CCOC(=O)c1csc(COc2ccc(OC)cc2)n1	-0.175
COc1cc(NC(=O)CN2CCN(c3ccccc3)CC2)c(C)cc1[N+](=O)[O-]	10.4
COCCCN1C(=O)C(=O)/C(=C(/O)c2ccc(OC(C)C)cc2)C1c1cccnc1 (centres unmarked)	22.5
O=C(O)CCC(=O)CCC(=O)c1ccccc1	2.98
O=C(Nc1ncc(Cc2ccc(Cl)cc2Cl)s1)c1ccc([N+](=O)[O-])cc1	2.13
COc1ccc(NC(=O)C2CCCC2)cc1S(=O)(=O)N1CCOCC1	1.61
CC(C)(C)C1=CC(O)(c2ccccc2)C=C(C(C)(C)C)C1=O	21.9
CCCCNC(=O)CSc1nc2ccc(NC(=O)CSc3nnc(COc4ccccc4C)n3C)cc2s1	14.6
Cc1cc(=O)oc(C)c1C(=O)Nc1cccc(F)c1	13.1
COc1ccc(NC(=O)N2CCN(C(=O)C(Cc3ccc(F)cc3)NC(C)=O)CC2)cc1 (centres unmarked)	4.68
CCOC(=O)c1ccc(NC(=O)CNC(=O)c2ccccc2)cc1	7.06
Cc1cc(N/N=C/c2c[nH]c3ccccc23)c2ccccc2n1	12.4
CCOC(=O)C1=C(C)NC(C)=C(C(=O)OCC)C1c1ccc(C)o1	10.2
O=C(NC1CCCCC1)c1cc([N+](=O)[O-])[nH]n1	6.33
CCOC(=O)C1CCN(C(=O)CN(c2ccc(OC)cc2)S(=O)(=O)c2c(C)noc2C)CC1	-0.213
CCc1nc(N)c(C#N)c(-c2ccncc2)c1C	9.24

Structure (SMILES)	hERG current change (%, negative = inhibition) at 1uM [%]
COc1ccc(-c2nn(-c3ccccc3)cc2/C=C\C(=O)Nc2ccc(C(=O)O)cc2)cc1	10.3
COc1cc(Cl)cc(C2NC(=O)NC(C)=C2C(C)=O)c1OCC(=O)O (centres unmarked)	-0.404
CCc1ccc(-c2cc(C)no2)cc1S(=O)(=O)N1CCOc2ccccc21	1.72
Cc1nc2c(cnn2-c2ccccc2)c(=O)[nH]1	17
CCOC(=O)CCC(NC(=O)CC(=O)NC(CCC(=O)OCC)C(=O)OCC)C(=O)OCC (centres unmarked)	14.7
N=c1c(S(=O)(=O)c2ccc(Br)cc2)cc2c(=O)n3ccccc3nc2n1Cc1ccco1	15.4
O=[N+]([O-])c1ccc(O)c(-c2cc(C(F)(F)F)nc(-c3ccccc3)n2)c1	15.7
Cc1nn2c(NCCOCCO)c3c(nc2c1-c1ccccc1)CCC3	-9.29
COC(=O)C(C(=O)OC)C(C)C(C(=O)OC)C(=O)OC	1.64
CC(C)Oc1cccc(C(=O)NC(=S)NCc2cccnc2)c1	-9.66
O=C(NCCc1ccccc1)C(=O)NCC1OCCN1S(=O)(=O)c1ccc(Br)cc1 (centres unmarked)	8.83
O=C(Nc1ccc(NC(=O)c2cccs2)cc1)c1ccc2c(c1)OCCO2	11
CNC(=O)CN(c1cccc(Br)c1)S(C)(=O)=O	11.4
Cc1cc(C)c(OCC(=O)NCC(C)(C)N2CCOCC2)c(C)c1	-0.673
S=C1NCN(Cc2cccnc2)CN1Cc1ccccc1	21.5
COc1ccc(NCc2nnc(SCC(=O)N3CCCc4ccccc43)n2C)cc1	-2.8
CCOc1cc(C(=O)NC(=S)Nn2cnnc2)cc(OCC)c1OCC	12.5
CC1(C)CN(c2ccccc2)N(C(=O)c2ccc(F)cc2)C1=O	2.5
CCOc1ccc2cc(S(=O)(=O)n3ccnc3C)ccc2c1	13
O=C(NCC(=O)N(c1ccccc1)C(C(=O)NC1CCCC1)c1cccnc1)c1cccs1 (centres unmarked)	8.91
